Among the data in patent US20250304585A1, “SULFAMATE BASED COVALENT LIGAND-DIRECTED RELEASE (COLDR) COMPOUNDS” (priority 2022, published 2025) are IC50 values, retold here.

Test [1] concerns the target T1, SARS-CoV-2 main protease (Mpro) (Severe acute respiratory syndrome coronavirus 2 (2019-nCoV) (SARS-CoV-2), UniProt P0DTD1). The test can be described thus: biochemical. To be noted: IC50 (μM), several values in a cell are measurements on various days, lowest most representative.
Test [2] concerns the target T1, SARS-CoV-2 main protease (Mpro). To be noted: several values in a cell are measurements on various days, lowest most representative.

Read-outs that look alike come from different tables or passages of the source.

In general, IC50 refers to the point on the concentration scale where inhibition reaches its midpoint. Read a high IC50 as weaker potency. `CC(C)C[C@@H]1CN(C(=O)COS(=O)(=O)N2CCN(C)CC2)CCN1Cc1cccc(Cl)c1` (racemic) [Compound A4]: the IC50 in test [1] is > 99.5 µM.

As for `CC(C)C[C@H]1CN(C(=O)CCl)CCN1Cc1cccc(Cl)c1` [A], in test [2], the midpoint of inhibition, the IC50, lay at 700 ± 83.7 nM.

`CC(NC(=O)CCl)c1cc(Cl)cc(-c2ccc(S(N)(=O)=O)cc2)c1` (stereo not shown) [B] returned an IC50 in test [2] of 466 nM. As for `O=C(NCc1ccccn1)[C@H]1CN(C(=O)CCl)CCN1S(=O)(=O)c1ccsc1` [C], the IC50 in test [2] was 307 nM.
